Experimental findings from the BET-seq Pho4 binding data (Le et al. 2018) are described below.

Some of the results follow. The energies were worked out here from pooled read counts, against the library average; single values are noisy.

The test addresses T1, Pho4 (S. cerevisiae) (UniProt P07270).
T1 sequence: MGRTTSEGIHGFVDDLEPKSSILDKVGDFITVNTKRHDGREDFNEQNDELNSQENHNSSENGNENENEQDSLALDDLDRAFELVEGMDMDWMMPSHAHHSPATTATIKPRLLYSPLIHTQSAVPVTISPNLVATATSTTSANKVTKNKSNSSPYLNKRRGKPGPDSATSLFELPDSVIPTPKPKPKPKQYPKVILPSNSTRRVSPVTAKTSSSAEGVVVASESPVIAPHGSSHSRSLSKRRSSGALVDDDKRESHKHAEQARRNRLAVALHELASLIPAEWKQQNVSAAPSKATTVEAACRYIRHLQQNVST
The test can be described thus: relative binding free energy (BET-seq); higher = weaker binding. The conditions noted are these: reference: library average.
Take GATCGCACGTGGGGAT: the “relative binding free energy” value was -0.12 kcal/mol.

For CGTGACACGTGCGGGT, the “relative binding free energy” value was -0.12 kcal/mol.

AAGTTCACGTGGATGC: the “relative binding free energy” value is 0.25 kcal/mol.

For the sequence GGGTCCACGTGTTGTT, the “relative binding free energy” value turned out to be 0.08 kcal/mol.

Take TGATGCACGTGGTTAA: the “relative binding free energy” value is -0.19 kcal/mol.

Consider ATGGGCACGTGGGTAT, for which the “relative binding free energy” value was -0.2 kcal/mol.

With GAGATCACGTGTTGTG, the “relative binding free energy” value amounted to 0.08 kcal/mol.

As to TAGGACACGTGTTGAT, the “relative binding free energy” value stood at 0.06 kcal/mol.

Consider GTTGGCACGTGGGTAT, for which the “relative binding free energy” value was -0.1 kcal/mol.

For GTCTACACGTGGTCTT, the “relative binding free energy” value turned out to be 0.18 kcal/mol.

Regarding GTTGCCACGTGAAGGT, the “relative binding free energy” value turned out to be 0.17 kcal/mol.

As for AGTATCACGTGCATGG, the “relative binding free energy” value is 0.1 kcal/mol.

Regarding TTAAGCACGTGACTGG, the “relative binding free energy” value stood at 0.05 kcal/mol.

On to TTCTGCACGTGGGGTG, for which the “relative binding free energy” value was -0.17 kcal/mol.

For the sequence GTTGACACGTGTGGGA, the “relative binding free energy” value came out at 0.15 kcal/mol.

In the case of TAGCTCACGTGAGTGA, the “relative binding free energy” value was 0.46 kcal/mol.

As to GTCTTCACGTGAGGAG, the “relative binding free energy” value amounted to 0.39 kcal/mol.

On to ATGTTCACGTGATGGA, for which the “relative binding free energy” value stood at 0.27 kcal/mol.

On to ATTCGCACGTGGAGTT, for which the “relative binding free energy” value stood at 0.07 kcal/mol.

For the sequence CATGTCACGTGTGTGG, the “relative binding free energy” value came to 0.05 kcal/mol.

On to TTAGTCACGTGTGCCG, for which the “relative binding free energy” value was found to be 0.04 kcal/mol.

Turning to TGTGCCACGTGATGTG, the “relative binding free energy” value was -0.01 kcal/mol.

In the case of AGGTACACGTGTGGAG, the “relative binding free energy” value stood at 0.08 kcal/mol.

As to GAGCTCACGTGTGGTG, the “relative binding free energy” value stood at 0.27 kcal/mol.

Regarding GATGTCACGTGGGGAC, the “relative binding free energy” value is 0.01 kcal/mol.

As to TAGTGCACGTGTCCAG, the “relative binding free energy” value worked out at 0.11 kcal/mol.

Consider GTTCTCACGTGGTGCT, for which the “relative binding free energy” value was 0.27 kcal/mol.

As to TAAAGCACGTGTGAGG, the “relative binding free energy” value was determined as 0.05 kcal/mol.

AGATGCACGTGGGAGA: the “relative binding free energy” value was -0.08 kcal/mol.

Consider TTATACACGTGATATT, for which the “relative binding free energy” value turned out to be 0.21 kcal/mol.

For TGCAGCACGTGGTGGA, the “relative binding free energy” value was -0.21 kcal/mol.

As for TTGGGCACGTGCAGTA, the “relative binding free energy” value was -0.08 kcal/mol.

As to TATTGCACGTGGACTT, the “relative binding free energy” value is -0.13 kcal/mol.

Consider AATGGCACGTGCGGAT, for which the “relative binding free energy” value was -0.17 kcal/mol.

On to AATTTCACGTGAGGAA, for which the “relative binding free energy” value stood at 0.35 kcal/mol.

For the sequence ATATCCACGTGTTTTG, the “relative binding free energy” value was -0.07 kcal/mol.

With GGCTGCACGTGAAGGT, the “relative binding free energy” value was 0.19 kcal/mol.

Regarding TTGAACACGTGAGTTT, the “relative binding free energy” value came out at 0.2 kcal/mol.

With CATTACACGTGTTGGG, the “relative binding free energy” value was found to be 0.08 kcal/mol.

Regarding TGATACACGTGGGTGA, the “relative binding free energy” value came to 0 kcal/mol.

As for TTAGGCACGTGCGTCT, the “relative binding free energy” value was -0.16 kcal/mol.

In the case of TGTAACACGTGTGTTA, the “relative binding free energy” value is 0 kcal/mol.

TGTAGCACGTGTTCGT: the “relative binding free energy” value is 0.1 kcal/mol.

Take TAAGACACGTGTGTAA: the “relative binding free energy” value was 0.03 kcal/mol.

On to TTGAACACGTGTACGG, for which the “relative binding free energy” value came to 0.02 kcal/mol.

Take GAAAGCACGTGGTTGT: the “relative binding free energy” value was -0.16 kcal/mol.

With TGGGACACGTGTCATT, the “relative binding free energy” value came to 0.01 kcal/mol.

As for GTATACACGTGCTGTG, the “relative binding free energy” value worked out at 0.01 kcal/mol.

Turning to TGATTCACGTGGAAGA, the “relative binding free energy” value turned out to be 0.24 kcal/mol.

Take GTGGACACGTGCGGTT: the “relative binding free energy” value was determined as 0.1 kcal/mol.

Regarding GATAGCACGTGAAGGG, the “relative binding free energy” value came to 0.11 kcal/mol.

GGAGTCACGTGTTGCT: the “relative binding free energy” value was found to be 0.17 kcal/mol.

For the sequence GTTCACACGTGATTTG, the “relative binding free energy” value came to 0.24 kcal/mol.

With CGCGGCACGTGTGGTC, the “relative binding free energy” value came out at 0.13 kcal/mol.

AAGGGCACGTGCCTGG: the “relative binding free energy” value was -0.21 kcal/mol.

As for GGCTTCACGTGGGCTT, the “relative binding free energy” value was 0.22 kcal/mol.

On to TTGATCACGTGGTTTC, for which the “relative binding free energy” value worked out at 0.17 kcal/mol.

As for TAGCGCACGTGGAGGG, the “relative binding free energy” value was -0.16 kcal/mol.

For TCAAGCACGTGGGCGG, the “relative binding free energy” value was -0.14 kcal/mol.

As to GTAGTCACGTGGTTGC, the “relative binding free energy” value turned out to be 0.18 kcal/mol.

On to GTAGACACGTGGAATG, for which the “relative binding free energy” value turned out to be 0.15 kcal/mol.

As for TGCTTCACGTGTAGTT, the “relative binding free energy” value was 0.32 kcal/mol.

In the case of ATAAGCACGTGTGGGC, the “relative binding free energy” value was found to be 0.05 kcal/mol.

Regarding GATGGCACGTGGGCAA, the “relative binding free energy” value was -0.14 kcal/mol.

Consider AGATTCACGTGTGCGG, for which the “relative binding free energy” value was 0.14 kcal/mol.

Turning to GTTAACACGTGGTTTC, the “relative binding free energy” value worked out at 0.01 kcal/mol.

As for ATATACACGTGTATGT, the “relative binding free energy” value was -0.07 kcal/mol.

Turning to TAAGTCACGTGTGCTA, the “relative binding free energy” value amounted to 0.1 kcal/mol.

In the case of TATAACACGTGGCTTG, the “relative binding free energy” value was -0.08 kcal/mol.

For AATTTCACGTGTTAGT, the “relative binding free energy” value was 0.29 kcal/mol.

In the case of CGTGGCACGTGTAGTA, the “relative binding free energy” value was 0.05 kcal/mol.

In the case of TATCTCACGTGATTGG, the “relative binding free energy” value was 0.28 kcal/mol.

Consider AGGAACACGTGTGTAA, for which the “relative binding free energy” value came out at 0.08 kcal/mol.
